Source: the supplement of paper PMC8948288
Shown are siRNA guide strands that differ only in the seed, positions 2 to 7.

What was measured:
H4 = assay: cell viability relative to siNT1 (ATP content); H4 human neuroglioma and GL261 mouse glioma; higher = less toxic; conditions: siRNA concentration 10 nM; 96 h; human
GL261 = assay: as above; conditions: siRNA concentration 25 nM; 96 h; mouse
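Also: cells reverse transfected with siRNA duplexes via lipid reagent, ATP read by luminescence, triplicate wells, values scaled to mean viability with non-targeting control siNT1.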

| Sequence | cell viability (H4) | cell viability (GL261) |
| --- | --- | --- |
| UUAAUCAACAUGUAAACCA | 108% | 46.4% |
| UUAAUCCACAUGUAAACCA | 27% | 38.4% |
| UUAAUCGACAUGUAAACCA | 113% | 45.2% |
| UUAAUCUACAUGUAAACCA | 91.2% | 53.3% |
| UUAAUGAACAUGUAAACCA | 80.7% | 55.5% |
| UUAAUGCACAUGUAAACCA | 71.3% | 14.9% |
| UUAAUGGACAUGUAAACCA | 46.8% | 44.9% |
| UUAAUGUACAUGUAAACCA | 78.3% | 31.5% |
| UUAAUUAACAUGUAAACCA | 100% | 66.4% |
| UUAAUUCACAUGUAAACCA | 68.2% | 37.8% |
| UUAAUUGACAUGUAAACCA | 83.2% | 74.1% |
| UUAAUUUACAUGUAAACCA | 113% | 44% |
| UUACAAAACAUGUAAACCA | 81% | 79.2% |
| UUACAACACAUGUAAACCA | 86.1% | 68.9% |
| UUACAAGACAUGUAAACCA | 74.4% | 74.7% |
| UUACAAUACAUGUAAACCA | 89.1% | 47.2% |
| UUACACAACAUGUAAACCA | 83.9% | 54.1% |
| UUACACCACAUGUAAACCA | 16.3% | 30.6% |
| UUACACGACAUGUAAACCA | 104% | 48.6% |
| UUACACUACAUGUAAACCA | 65.8% | 49.9% |
| UUACAGAACAUGUAAACCA | 92.6% | 45.7% |
| UUACAGCACAUGUAAACCA | 57.8% | 36.6% |
| UUACAGGACAUGUAAACCA | 54.8% | 45.3% |
| UUACAGUACAUGUAAACCA | 72.9% | 43.1% |

| Sequence | cell viability (H4) | cell viability (GL261) |
| --- | --- | --- |
| UUACAUAACAUGUAAACCA | 82.2% | 63% |
| UUACAUCACAUGUAAACCA | 64.6% | 36.9% |
| UUACAUGACAUGUAAACCA | 74.9% | 54% |
| UUACAUUACAUGUAAACCA | 99.5% | 71.5% |
| UUACCAAACAUGUAAACCA | 73.6% | 48.4% |
| UUACCACACAUGUAAACCA | 62.1% | 78.1% |
| UUACCAGACAUGUAAACCA | 55.1% | 43.9% |
| UUACCAUACAUGUAAACCA | 42.9% | 55.2% |
| UUACCCAACAUGUAAACCA | 55.3% | 44.9% |
| UUACCCCACAUGUAAACCA | 18.1% | 37.8% |
| UUACCCGACAUGUAAACCA | 68.3% | 66.5% |
| UUACCCUACAUGUAAACCA | 38.4% | 33.5% |
| UUACCGAACAUGUAAACCA | 78.7% | 74.7% |
| UUACCGCACAUGUAAACCA | 58.9% | 40.2% |
| UUACCGGACAUGUAAACCA | 79.4% | 54.1% |
| UUACCGUACAUGUAAACCA | 95.3% | 58.1% |
| UUACCUAACAUGUAAACCA | 76% | 81.9% |
| UUACCUCACAUGUAAACCA | 47.4% | 30% |
| UUACCUGACAUGUAAACCA | 62.5% | 86.5% |
| UUACCUUACAUGUAAACCA | 60.8% | 58.6% |
| UUACGAAACAUGUAAACCA | 96.9% | 68.5% |
| UUACGACACAUGUAAACCA | 57.5% | 38.4% |
| UUACGAGACAUGUAAACCA | 75.6% | 57.7% |
| UUACGAUACAUGUAAACCA | 74.5% | 64% |

| Sequence | cell viability (H4) | cell viability (GL261) |
| --- | --- | --- |
| UUACGCAACAUGUAAACCA | 90.2% | 63.8% |
| UUACGCCACAUGUAAACCA | 67.5% | 42.4% |
| UUACGCGACAUGUAAACCA | 95.1% | 57.4% |
| UUACGCUACAUGUAAACCA | 95.4% | 65.9% |
| UUACGGAACAUGUAAACCA | 87.4% | 53.9% |
| UUACGGCACAUGUAAACCA | 50.1% | 41.5% |
| UUACGGGACAUGUAAACCA | 43.6% | 75.1% |
| UUACGGUACAUGUAAACCA | 61.8% | 38.1% |
| UUACGUAACAUGUAAACCA | 84.9% | 63.6% |
| UUACGUCACAUGUAAACCA | 65.2% | 77.7% |
| UUACGUGACAUGUAAACCA | 98.9% | 71.6% |
| UUACGUUACAUGUAAACCA | 104% | 56.4% |
| UUACUAAACAUGUAAACCA | 85.5% | 60.8% |
| UUACUACACAUGUAAACCA | 57.3% | 59.1% |
| UUACUAGACAUGUAAACCA | 74.6% | 69.3% |
| UUACUAUACAUGUAAACCA | 80.4% | 49% |
| UUACUCAACAUGUAAACCA | 69.9% | 65.8% |
| UUACUCCACAUGUAAACCA | 12.9% | 39.2% |
| UUACUCGACAUGUAAACCA | 71.9% | 81.8% |
| UUACUCUACAUGUAAACCA | 54% | 44.7% |
| UUACUGAACAUGUAAACCA | 95.7% | 67.5% |
| UUACUGCACAUGUAAACCA | 58.6% | 31.9% |
| UUACUGGACAUGUAAACCA | 55% | 41.2% |
| UUACUGUACAUGUAAACCA | 60.5% | 45.8% |

| Sequence | cell viability (H4) | cell viability (GL261) |
| --- | --- | --- |
| UUACUUAACAUGUAAACCA | 70.3% | 72.3% |
| UUACUUCACAUGUAAACCA | 46.2% | 51.4% |
| UUACUUGACAUGUAAACCA | 80.9% | 59.5% |
| UUACUUUACAUGUAAACCA | 51% | 75.7% |
| UUAGAAAACAUGUAAACCA | 105% | 90.1% |
| UUAGAACACAUGUAAACCA | 65.2% | 64.1% |
| UUAGAAGACAUGUAAACCA | 93.2% | 82.5% |
| UUAGAAUACAUGUAAACCA | 96.1% | 56.5% |
| UUAGACAACAUGUAAACCA | 88.9% | 74.3% |
| UUAGACCACAUGUAAACCA | 75.5% | 37.9% |
| UUAGACGACAUGUAAACCA | 73.1% | 69.9% |
| UUAGACUACAUGUAAACCA | 78.1% | 85.7% |
| UUAGAGAACAUGUAAACCA | 85.9% | 40.5% |
| UUAGAGCACAUGUAAACCA | 45.8% | 51.9% |
| UUAGAGGACAUGUAAACCA | 62.5% | 25.5% |
| UUAGAGUACAUGUAAACCA | 59.5% | 31.2% |
| UUAGAUAACAUGUAAACCA | 112% | 52.6% |
| UUAGAUCACAUGUAAACCA | 90.7% | 33% |
| UUAGAUGACAUGUAAACCA | 87.1% | 44% |
| UUAGAUUACAUGUAAACCA | 78.8% | 60.1% |
| UUAGCAAACAUGUAAACCA | 88.6% | 56.2% |
| UUAGCACACAUGUAAACCA | 66.2% | 30.7% |
| UUAGCAGACAUGUAAACCA | 79.9% | 44.4% |
| UUAGCAUACAUGUAAACCA | 81.2% | 42.3% |

| Sequence | cell viability (H4) | cell viability (GL261) |
| --- | --- | --- |
| UUAGCCAACAUGUAAACCA | 71.6% | 45.6% |
| UUAGCCCACAUGUAAACCA | 35.5% | 28.5% |
| UUAGCCGACAUGUAAACCA | 71.4% | 59.4% |
| UUAGCCUACAUGUAAACCA | 22.5% | 33.3% |
| UUAGCGAACAUGUAAACCA | 85.2% | 82.6% |
| UUAGCGCACAUGUAAACCA | 85.4% | 65.7% |
| UUAGCGGACAUGUAAACCA | 40.5% | 65% |
| UUAGCGUACAUGUAAACCA | 77.8% | 67.2% |
| UUAGCUAACAUGUAAACCA | 93.2% | 75.7% |
| UUAGCUCACAUGUAAACCA | 33.9% | 40.6% |
| UUAGCUGACAUGUAAACCA | 83.1% | 80.9% |
| UUAGCUUACAUGUAAACCA | 65.4% | 53.9% |
| UUAGGAAACAUGUAAACCA | 78.4% | 62.2% |
| UUAGGACACAUGUAAACCA | 52.9% | 49.9% |
| UUAGGAGACAUGUAAACCA | 77.2% | 63.9% |
| UUAGGAUACAUGUAAACCA | 55.3% | 59.9% |
| UUAGGCAACAUGUAAACCA | 84.6% | 46.7% |
| UUAGGCCACAUGUAAACCA | 28.5% | 14.2% |
| UUAGGCGACAUGUAAACCA | 69.9% | 56.7% |
| UUAGGCUACAUGUAAACCA | 47.9% | 34.2% |
| UUAGGGAACAUGUAAACCA | 64.4% | 47.2% |
| UUAGGGCACAUGUAAACCA | 26.9% | 43.3% |
